# Screen size: about 67,000 compounds; fewer than 10 were called active. This list was built around the results that the source calls inconclusive (neither active nor inactive); the mix of calls is not that of the screen. The call rests on the fitted dose curve; in most records, active means well fitted activation curve with a large enough effect (not every such curve was filed as active); inconclusive means small, poorly fitted or top-dose-only effect, or another doubt; inactive means no such curve, though single readings can be large or run the other way. Non-standard residues stand in square brackets, D forms with d. Residues, ends and D or L forms follow the SMILES beside them.
# Assay: Ubiquitin-GFP Assay
# Conditions: Ubiquitin-GFP reporter cells, proteasome inhibition, GFP fluorescence; activation (GFP accumulation): at 45.9 µM (top of the series), untreated = 0%, 10 µM MG-132 = 100% unless noted
# How it was run: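 Reporter cells (U2OS, ubiquitin-G76V-GFP fusion) are plated overnight, then treated 4 hr at 37 °C with compound titrations from 46 uM down to 2.9 nM. Activity is scaled against untreated cells and 10 uM MG-132.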
row,SMILES,activation (GFP accumulation)
1,Cc1noc(C)c1C(=O)N1CCC[C@@]2(CCN(C(=O)Nc3ccccc3)C2)C1,inactive
2,O=S(=O)(c1ccc(S(=O)(=O)N2CCCC2)cc1)N1CCCCCC1,inactive
3,COCCOC(=O)/C=C1/NC(=O)CS1,inactive
4,CSCC[C@H](C=O)NC(=O)[C@H](CC(C)C)NC(=O)[C@H](CC(C)C)NC(C)=O (Ac-Leu-Leu-[dM]-aldehyde),inconclusive: 49.3% [activator]
5,Cc1cc(C(F)(F)F)nn1CC(=O)N1CCCC1,inactive
6,Cc1ccc([C@@]2(C)CC/C(=N/N=C3\CC[C@](C)(c4ccc(C)c(C)c4)c4cc(C)c(C)cc43)c3cc(C)c(C)cc32)cc1C,"inactive: 4.75% [at 9.17 µM, untreated = 0%, 10 µM MG-132 = 100%]"
7,COC(=O)C1C(=O)c2c([nH]c(C(=O)OC3CCCCCC3)c2C)CC1C (centres undefined),inconclusive: 33.9% [activator]
8,CC(C)n1c2ccccc2c2nnc(SCC(=O)OCN3C(=O)c4ccccc4C3=O)nc21,"inconclusive: 30.1% [activator] [at 9.17 µM, untreated = 0%, 10 µM MG-132 = 100%]"
9,COc1ccccc1NC(=O)N1CCc2[nH]c3ccc(Cl)cc3c2C1,inactive
10,COC(=O)C(Cc1ccccc1)NC(=O)CSc1nc(N)cc(=O)[nH]1 (centres undefined),inconclusive: 30.7% [activator]
11,O=C(Nc1ccc(CN2CCOCC2)cc1)c1cc2ccccc2o1,inactive
12,C/C(=C\c1ccco1)C1C(C#N)=C(N)Oc2n[nH]c(-c3ccccc3)c21 (centres undefined),inconclusive: -3.93% [activator]
13,COCCn1c(=O)c(-c2cccs2)nc2cnc(Nc3ccccc3)nc21,inconclusive: 122% [activator]
14,O=C(CCNS(=O)(=O)c1ccc(Br)s1)N1CCN(c2ccccc2)CC1,inconclusive: 3.42% [activator]
15,O=c1c(-c2cccs2)nc2cnc(Nc3ccccc3)nc2n1C[C@H]1CCCO1,inconclusive: 52% [activator]
16,O=C(Nc1cccc(Br)c1)c1cc2ccccc2o1,inactive
17,COC1=C(OC)C(=O)c2ccccc2C1=O,inactive
18,CCCCNC(=O)CCCn1c(=O)c2ccccc2n(CC(=O)NCCC2=CCCCC2)c1=O,inconclusive: -10.8% [activator]
19,CN(C)CC(=O)c1ccc(-c2ccccc2)cc1,inactive
20,COc1ccc(/C=N/c2nc3ccccc3n2C)cc1OC,inconclusive: -0.357% [activator]
21,c1ccc(-n2cccc2CNC2CCCCC2)cc1,inactive
22,COC(=O)c1cc(Br)ccc1-c1ccc(/C=N/n2nnnc2N)o1,"inconclusive: -0.842% [activator] [at 9.17 µM, untreated = 0%, 10 µM MG-132 = 100%]"
23,COc1ccc(OCCCC(=O)Nc2ccc3c(c2)OCCO3)cc1,"inconclusive: 33% [activator] [at 9.17 µM, untreated = 0%, 10 µM MG-132 = 100%]"
24,COc1ccc2c(C=Nc3c(C)n(C)n(-c4ccccc4)c3=O)c(O)n(Cc3ccco3)c(=O)c2c1,inconclusive: 8.7% [activator]
25,COc1ccc(-n2c(-c3ccco3)n[nH]c2=S)cc1,"inconclusive: 12.5% [activator] [at 9.17 µM, untreated = 0%, 10 µM MG-132 = 100%]"

row,SMILES,activation (GFP accumulation)
1,COc1ccccc1NC(=O)C1=C(C)Nc2nnnn2C1c1cccc(Br)c1 (centres undefined),inconclusive: 34.8% [activator]
2,Cc1c(N=Cc2cc3c(cc2Cl)OCO3)c(=O)n(-c2ccccc2)n1C,inconclusive: 21.1% [activator]
3,c1cnc(Oc2ccc(-c3nnco3)cc2)cn1,inconclusive: 30.5% [activator]
4,COc1ccc(-n2c(=O)c(C)nc3cnc(Oc4cccc(Cl)c4)nc32)cc1,inactive
5,COc1ccc(-n2c(=O)c(-c3cccs3)nc3cnc(Nc4cccc(OC)c4)nc32)cc1,inconclusive: 54.1% [activator]
6,Cc1onc(-c2ccccc2)c1C(=O)Nc1ccc2c(c1)OCO2,inconclusive: -12.5% [activator]
7,COc1ccc(CN2CCN(C(=O)CC(C)C)CC2)c(OC)c1OC,inconclusive: 17.4% [activator]
8,O=C(COc1ccc(Cl)cc1)NCCCn1ccnc1,inconclusive: 32.6% [activator]
9,CC(C)Sc1oc(-c2ccco2)nc1S(=O)(=O)c1ccc(F)cc1,inconclusive: 6.35% [activator]
10,O=P(O)(O)C(O)C(F)(F)C(F)(F)C(F)(F)C(F)F (centres undefined),inactive
11,CNc1nc(-c2ccc(N(C)C)cc2)nc2ccccc12,inactive
12,O=c1c(CCc2ccccc2)nc2cnc(Nc3ccccc3)nc2n1Cc1cccs1,inconclusive: 46.7% [activator]
13,O=C1C2C3C=CC(C3)C2C(=O)N1CNc1ccccc1 (centres undefined),"inconclusive: 14.5% [activator] [at 9.17 µM, untreated = 0%, 10 µM MG-132 = 100%]"
14,COc1ccc(N(C)S(=O)(=O)c2cccc3cccnc23)c(OC)c1,inconclusive: 32.4% [activator]
15,CC1=C(C(=O)NCCCOC(C)C)C2(CCC(C)CC2)OC1=O (centres undefined),inconclusive: 32.4% [activator]
16,Cc1ccccc1-c1nc(CS(=O)(=O)CC(=O)Nc2cc(F)ccc2F)c(C)o1,inactive
17,O=C1C2C3CCCC3=C3CCCC3C2C(=O)N1c1cccc(Cl)c1 (centres undefined),inconclusive: 30.4% [activator]
18,c1ccc(Nc2cc(-c3ccoc3)ncn2)cc1,inactive
19,Fc1cccc(Cl)c1CSc1nnnn1-c1ccc2c(c1)OCO2,"inconclusive: 39% [activator] [at 9.17 µM, untreated = 0%, 10 µM MG-132 = 100%]"
20,CCOC(=O)CN(C(=O)c1ccccc1)c1ccccc1C,inconclusive: -7.74% [activator]
21,Cc1cc(C)n(-c2cc(-n3nc(C)cc3C)ncn2)n1,"inconclusive: 10.8% [activator] [at 9.17 µM, untreated = 0%, 10 µM MG-132 = 100%]"
22,COc1cccc(NS(=O)(=O)c2ccc(Br)s2)c1,inactive
23,COc1ccc(CNc2ccnc(-c3cccnc3)n2)c(OC)c1,inactive
24,Cc1ccc(-n2c(C)nc3oc4ccccc4c(=O)c3c2=O)cc1,inconclusive: 8.31% [activator]
25,COc1ccc(-c2nc3cnc(N4CCN(C)CC4)nc3n(CCc3ccccc3)c2=O)cc1,inconclusive: 38% [activator]

row,SMILES,activation (GFP accumulation)
1,CCOc1ccc2noc3c2c1C(=O)c1ccccc1-3,inconclusive: 71.1% [activator]
2,CCCCOc1ccccc1-c1cc(C(=O)O)[nH]n1,inconclusive: 20.2% [activator]
3,CCN(CC)CCN(CC)Cc1ccccc1Br,"inconclusive: 4.29% [activator] [at 9.17 µM, untreated = 0%, 10 µM MG-132 = 100%]"
4,O=C(NCc1ccc(Cl)c(Cl)c1)c1ccco1,"inconclusive: 18.2% [activator] [at 9.17 µM, untreated = 0%, 10 µM MG-132 = 100%]"
5,COc1cccc(-c2ccc3ncnc(NCc4cccs4)c3c2)c1,inactive
6,COCCn1c(=O)c(-c2ccc(Cl)cc2)nc2cnc(N(C)C)nc21,inconclusive: 47.3% [activator]
7,CN1CCN(c2ncc3nc(-c4cccs4)c(=O)n(Cc4cccs4)c3n2)CC1,inconclusive: 66% [activator]
8,CC1(C)C=C(c2ccc(O)cc2)CC(C)(C)N1,inconclusive: 55.6% [activator]
9,Cc1cc(/C=N/n2cnnc2)c(C)n1-c1ccc(OCc2ccc(F)cc2)cc1,"inconclusive: 42.5% [activator] [at 9.17 µM, untreated = 0%, 10 µM MG-132 = 100%]"
10,Cc1cc(C)n(-c2nc3ccccc3nc2Nc2ccc3[nH]c(=O)[nH]c3c2)n1,inconclusive: 141% [activator]
11,COC(=O)N1CCC2(CCN(C(=O)Nc3ccc(OC)cc3)CC2)CC1,inactive
12,CC(=O)Nc1ccc(N2CCN(C(C)=O)CC2)cc1,inconclusive: 30.3% [activator]
13,CCN(CC)CCOc1c(Br)ccc2c1sc1nc3n(c(=O)c12)CCC3,inconclusive: 49.1% [activator]
14,CN1CCN(c2ncc3nc(-c4cccs4)c(=O)n(Cc4ccc(F)cc4)c3n2)CC1,inconclusive: 228% [activator]
15,COc1ccc(-c2nc3cnc(Nc4cccc(OC)c4)nc3n(CCC#N)c2=O)cc1,inconclusive: 71.4% [activator]
16,COc1ccc(-n2c3c(cc(C(=O)N4CCC(C)CC4)c2=O)C(=O)CC(C)(C)C3)cc1,inconclusive: 32.7% [activator]
17,C=CCOc1c(Cl)cc(/C=N/O)cc1OC,"inconclusive: 34.7% [activator] [at 9.17 µM, untreated = 0%, 10 µM MG-132 = 100%]"
18,CCc1sc(C(=O)Nc2ccsc2C(=O)OC)cc1Br,inconclusive: 15% [activator]
19,CSc1nnc2c3ccccc3n(CCc3ccccc3)c2n1,"inactive: 6.67% [at 9.17 µM, untreated = 0%, 10 µM MG-132 = 100%]"
20,Cc1c(N=Cc2ccc(Cl)o2)c(=O)n(-c2ccccc2)n1C,inactive
21,O=C(CSc1nnc(Cc2ccccc2)o1)NCc1ccco1,inactive
22,COC(=O)c1cc(CSc2nc3ccc(C)cc3[nH]2)oc1C,inactive
23,N=c1n(-c2ccccc2)c(O)cc(=O)n1-c1ccccc1,inconclusive: 31.2% [activator]
24,CCOC(=O)C1C(c2cccc(Cl)c2Cl)NC(=O)NC1(O)C(F)(F)F (centres undefined),"inconclusive: -14.8% [activator] [at 9.17 µM, untreated = 0%, 10 µM MG-132 = 100%]"

# Reference: PubChem BioAssay AID526 (National Center for Advancing Translational Sciences (NCATS), 2006)
